The source of these data is the supplement of paper PMC8728848.

This is one part of the list.

Common to all, as to experiment: glycan array binding signal (z-score within array); higher = stronger binding
Common to all, as to conditions: glycan notation: IUPAC condensed, linker removed

Test [1] deals with Gal(b1-3)[Fuc(a1-4)]GlcNAc(b1-3)Gal(b1-4)[Fuc(a1-3)]GlcNAc. An outline of the steps: (§1)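 Columns mapping to the same glycan were averaged after glycan names were converted to IUPAC-condensed notation. The data come from 3228 arrays in the Consortium for Functional Glycomics database, limited to those with an available protein sequence. Binding is reported as a within-array Z-score averaged across arrays of one protein sequence and across linkers.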

Test [2] concerns the target Gal(b1-3)[Fuc(a1-4)]GlcNAc(b1-6)GalNAc. The method, boiled down: as §1
Test [3] has as its target Gal(b1-3)[GlcNAc(b1-6)]GalNAc. An outline of the steps:
as §1

Test [4] deals with Gal(b1-3)[Neu5Ac(a2-6)]GalNAc. An outline of the steps: as §1
The target of test [5] is Gal(b1-3)[Neu5Ac(a2-6)]GlcNAc(b1-4)Gal(b1-4)Glc. An outline of the steps: as §1
Test [6] deals with Gal(b1-3)[Neu5Ac(b2-6)]GalNAc. An outline of the steps: as §1
In test [7] the target is Gal(b1-4)Gal. An outline of the steps: as §1
Test [8] deals with Gal(b1-4)GalNAc(a1-3)[Fuc(a1-2)]Gal(b1-4)GlcNAc. The method, boiled down: as §1
In test [9] the target is Gal(b1-4)GalNAc(b1-3)[Fuc(a1-2)]Gal(b1-4)GlcNAc. The method, boiled down:
as §1

Test [10] concerns the target Gal(b1-4)Glc. The method, boiled down: as §1
Test [11] addresses Gal(b1-4)Glc6S. An outline of the steps: as §1
Test [12] deals with Gal(b1-4)GlcNAc. The method, boiled down: as §1
Test [13] concerns the target Gal(b1-4)GlcNAc(a1-6)Gal(b1-4)GlcNAc. An outline of the steps:
as §1

Test [14] addresses Gal(b1-4)GlcNAc(b1-2)Man. The method, boiled down:
as §1

For test [15], the target named is Gal(b1-4)GlcNAc(b1-2)Man(a1-3)Man(b1-4)GlcNAc(b1-4)GlcNAc. The method, boiled down: as §1
For test [16], the target named is Gal(b1-4)GlcNAc(b1-2)Man(a1-3)[Gal(b1-4)GlcNAc(b1-2)Man(a1-6)]Man(b1-4)GlcNAc(b1-4)GlcNAc. An outline of the steps: as §1
The target in test [17] is Gal(b1-4)GlcNAc(b1-2)Man(a1-3)[Gal(b1-4)GlcNAc(b1-2)Man(a1-6)]Man(b1-4)GlcNAc(b1-4)[Fuc(a1-6)]GlcNAc. An outline of the steps:
as §1

The target of test [18] is Gal(b1-4)GlcNAc(b1-2)Man(a1-3)[Gal(b1-4)GlcNAc(b1-2)Man(a1-6)][Gal(b1-4)GlcNAc(b1-4)]Man(b1-4)GlcNAc(b1-4)[Fuc(a1-6)]GlcNAc. The method, boiled down:
as §1

Test [19] addresses Gal(b1-4)GlcNAc(b1-2)Man(a1-3)[Gal(b1-4)GlcNAc(b1-2)Man(a1-6)][GlcNAc(b1-4)]Man(b1-4)GlcNAc(b1-4)[Fuc(a1-6)]GlcNAc. The method, boiled down:
as §1

In test [20] the target is Gal(b1-4)GlcNAc(b1-2)Man(a1-3)[GlcNAc(b1-2)Man(a1-6)]Man(b1-4)GlcNAc(b1-4)GlcNAc. The method, boiled down: as §1
Test [21] addresses Gal(b1-4)GlcNAc(b1-2)Man(a1-3)[GlcNAc(b1-4)][Gal(b1-4)GlcNAc(b1-2)Man(a1-6)]Man(b1-4)GlcNAc(b1-4)GlcNAc. An outline of the steps:
as §1

The target in test [22] is Gal(b1-4)GlcNAc(b1-2)Man(a1-3)[Man(a1-6)]Man(b1-4)GlcNAc(b1-4)GlcNAc. An outline of the steps: as §1
For test [23], the target named is Gal(b1-4)GlcNAc(b1-2)Man(a1-6)Man(b1-4)GlcNAc(b1-4)GlcNAc. An outline of the steps: as §1

B1: InvD YPIII (Yersinia pseudotuberculosis), B1JSC0 (protein)
chain: MIKYFSFFKKPEPIVGILPNRQSHHILPTHIRRVAWGTLLLQLFIPLSVSFSPAIAAMKASKADTMVSYSSTEPYVLGSGETVAMVAKKYGITVDELKKINIYRTFSRPFTALTTGDEIDIPRKASPFSVDNNKDNRLSVENTLAGHAVAGATALSNGDVAKSGERMVRSAASNEFNNSAQQWLSQFGTARVQLNINDDFHLDGSAADVLIPLYDNEKSILFTQLGARNKDSRNTVNMGAGVRTFQGNWMYGANTFFDNDLTGKNRRIGVGAEAWTDYLKLSANNYFGITDWHQSRDFIDYNERPANGYDLRAEAYLPSYPQLGGKAMYEKYRGDDVALFGKDNRQKNPHAITAGVNYTPIPLVTIGAEHRAGKGGQNDSNINFQLNYRLGETWQSHIDPSAVAASRTLAGSRYDLVERNNHIVLDYQKQNLVRLSLPDSLAGDPFSQLSVTAQVTATHGLERIDWQSAELMAAGGVLKQTSKNGLEITLPEYQMNRTGGNSYILNAIAYDTQGNASSQASMLITVNAQKINIANSTLVAVPINIEANNSDTSVVTLTLKDDNNIPVTGQDVTFLSPLGTLSAMTDSGNGVYTATLTAGTVSGTTAVSSNINGSALDMTPATVTLNGNSGELSITHSMLVAAPVNIEANGSDTSVVTLTLRDSNNNPVTGQTVTFAGTLGTLGAVTEGSSGVYTATLTAGIMVGTSSITASVNSTALGVTPATVTLNGDSGNLSTTNSTLVAAPVNIEANSSDTSVVTLTLRDNNNNPVTGQTVVFTSTLGTLGNVTEQASGVYTATLTAGTVSGVASLSVSVGGNALGVTPATVTLNGDSGNLSTTNSTLVAAPVNIEANSSDTSVVTLTLRDNNNNPVTGQTVNFAGTLGTLGTVSEGSSGVYTTTLTAGTVAGVASLSVNVGGNALGVTPATVTLNGNSGNLSATNSTLVAAPVNIEANSSDTSVVTLTLRDNNNNPVTGQTVAFTSTLGTLGNVTEQASGVYTATLTAGTVSGVASLSVSVNSNALGVTPATVTLNGDSGNLSTTNSTLVAAPVNIEANSSDTSVVTLTLRDNNNNPVTGQTVAFTSTLGTLGNVTEQASGLYTATLTAGTVSGVASLSVNVGGNALGVTPATVTLNGDSGNLSATNSTLVAAPVNIEANSSDTSVVTLTLRDNNNNPVTGQTVAFTSTLGTLGNVTEQASGLYTATLTAGTVSGVASLSVNVGGTALGVTPATVTLNGDSGNLSTTNSTLVAAPVNIEANSSDTSVVTLTLRDNNNNPVTGQTVAFTSTLGTLGNVTEQASGLYTATLTAGTVSGVASLSVSVNSTALGVTPATVTLNGDSGNLSTTNSTLVAAPVNIEANSSDTSVVTLTLRDNNNNPVTGQTVAFTSTLGTLGNVTEQASGVYTATLTAGTVAGVASLSVNVGGNALGVTPATVTLNGDSGNLSTTNSTLVAAPVNIEANSSDTSVVTLTLRDNNNNPVTGQTVAFTSTLGTLGNVTEQASGVYTATLTAGTVSGVASLSVSVGSSALGVTPATVTLNGDSGNLSTTNSTLVAAPVNIEANNSDTSVVTLTLRDNNNNPVTGQTVAFTSTLGTLGNVTEQASGVYTATLTAGTVSGVASLSVSVNSNALGVTPATVTLNGDSGNLSTTNSTLVAAPVNIEANSSDTSVVTLTLRDNNNNPVTGQTVVFTSTLGTLGNVTEQASGLYTATLTAGTVSGVASLSVSVGGNALGVTGNITLAPGALDAARSILAVNKPSINADDRIGSTITFTAQDAQGNAITGLDIAFMTDLENSQIMTLVDHNDGTYTANINGTQTGIANIAVQSSGATIAGLAATMVTITPGAWNTTQATPVMTVALPITTCQSSSGVYKRYYIGIVTHELYDNYGNEISGILTYNLGAGRYTTVTSQNSSVSGSNGLTRRSNSPVSHFILTSDAYTSQAACYAERIANVNVTITVTAITDDFKTSAVNKVFILGTGSN
Turning to B1, the “glycan array binding signal (z-score)” value was -0.071 in test [1]; -0.151 in test [2]; -0.2 in [3]; 0.137 in test [4]; -0.184 in [5]; -0.06 in [6]. In addition, the “glycan array binding signal (z-score)” value in test [7] was -0.168; in test [8] it was -0.092; in test [9], -0.161; in test [10], -0.098; in test [11], -0.213; in [12] it was -0.187. The “glycan array binding signal (z-score)” value in test [13] was -0.321; in [14], -0.152; in test [15] it was -0.355; in test [16], -0.06; in [17], 0.529; in test [18], -0.312. The “glycan array binding signal (z-score)” value is -0.026 in [19]; 0.014 in test [20]; -0.317 in test [21]; 0.326 in [22]; -0.32 in [23].
